The values that follow come from the RNAGym collection of RNA variant scans (doi:10.1101/gad.245936.114).

First the molecules themselves.
B1: tRNA (parent)
chain: CUCUCGGUAGCCAAGUUGGUUUAAGGCGCAAGACUUUAAUUUAUCACUACGAAAUCUUGAGAUCGGGCGUUCGACUCGCCCCCGGGAGAUUUUUUCCUCGAGCAA

This sample is rich in variants without activity.

Variants of B1 are the subject of the series. The series is described as follows: nonsense suppression (GFP-seq) (ratio to wild type); higher = more function; SUP4oc tRNA, yeast GFP reporter sort-seq. The method in brief:
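Nonsense suppression (GFPSEQ) is the median GFP/RFP ratio of each sorting bin, weighted by the variant's estimated share of cells in that bin and expressed relative to the unmutated parent tRNA. Yeast strains carried genome-integrated variants of an ochre-suppressor tRNA from a library with ~3% random mutations, plus a galactose-driven GFP ochre reporter and RFP, and were grown in raffinose/galactose medium containing 80 mg/L adenine. Cells were sorted into GFP/RFP bins, each bin was Illumina-sequenced (phred ≥30), and variants were kept only with ≥100 reads and ≥30 cells.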
In the case of C5U A54G U55C, the nonsense suppression was not above 0.026.
For U2C G15A, the nonsense suppression is not above 0.026.
Regarding G19C G32A U35G C75A, the nonsense suppression is not above 0.026.
Take U4G A14U U16G C29A A33U G69C A74G: the nonsense suppression is not above 0.026.
As to A14U C29U, the nonsense suppression was not above 0.026.
Consider A14U G26U G78C, for which the nonsense suppression is not above 0.026.
For A31U G67A U70G, the nonsense suppression was not above 0.026.
For U17G A33U U63G C68A U71G, the nonsense suppression is not above 0.026.
Next, C3G G7C G26U A31C C68G: not above 0.026.
Turning to G15C G78C G86C, the nonsense suppression was not above 0.026.
With U20G G59C G67C, the nonsense suppression was not above 0.026.
As for C80A, the nonsense suppression is not above 0.026.
As for G15U U20C G32U C82U, the nonsense suppression is not above 0.026.
For C27U U58G U63G C68U, the nonsense suppression is not above 0.026.
In the case of U63A A89G, the nonsense suppression was not above 0.026.
Turning to A14C G15U G18C U57C, the nonsense suppression was not above 0.026.
As for C11U G18A U76C, the nonsense suppression was not above 0.026.
As to C29G U35A C72G, the nonsense suppression is not above 0.026.
Take G7A A33U G73U: the nonsense suppression is not above 0.026.
In the case of G78A A89G, the nonsense suppression was not above 0.026.
Consider G78A A89U, for which the nonsense suppression is not above 0.026.
For A24U G78U, the nonsense suppression came out at 0.0565.
For the variant G26C C34A C83A, the nonsense suppression was not above 0.026.
With A9G A62G the figure was not above 0.026.
A14U U63C A89U: the nonsense suppression is not above 0.026.
With U2C A24C the figure was 0.0326; with C12U G73A A74G C81A, not above 0.026.
Turning to A31G C82A, the nonsense suppression was not above 0.026.
Turning to C11G G28C, the nonsense suppression was not above 0.026.
With G10C U20A A23G A31U the figure was not above 0.026.
With U17G G86U, the nonsense suppression was not above 0.026.
In the case of G59A G73C C82A, the nonsense suppression was not above 0.026.
Consider G65C C75U G85C, for which the nonsense suppression is not above 0.026.
Next, G19U A30G: not above 0.026; A23C A60G U63C C81U G85A: not above 0.026.
As for U55C U58A A74C C81G G86U, the nonsense suppression is not above 0.026.
Turning to C29U G67C C68U C80G G86A, the nonsense suppression was not above 0.026.
A9G A13C A60G: the nonsense suppression was not above 0.026.
On to G28U C79A A87C, for which the nonsense suppression is not above 0.026.
With C34U G69A A89C the figure was not above 0.026; with G15C G69U G73C, not above 0.026; with G26U U71C, not above 0.026.
For the variant C29A C82A, the nonsense suppression was not above 0.026.
For the variant C29U C56A G67A, the nonsense suppression is not above 0.026.
Regarding G25A C64A, the nonsense suppression was not above 0.026.
For A9G G25U G85C, the nonsense suppression was not above 0.026.
In the case of A60G G61C U71G C81G, the nonsense suppression is not above 0.026.
For G6A A24G C27A C29G, the nonsense suppression was not above 0.026.
As for C1G G61A, the nonsense suppression was not above 0.026.
On to G66C G73C C82G, for which the nonsense suppression is not above 0.026.
With C5U A13G A14C the figure was not above 0.026; with A23U A60C A62G, not above 0.026; with U2C A9G G73A, not above 0.026.
Turning to C29U G69C, the nonsense suppression was not above 0.026.
Take G10A U17A U58A U71C: the nonsense suppression is not above 0.026.
As to G10U G18C C29G G86A, the nonsense suppression was not above 0.026.
Consider G15U G32U U57C C75A, for which the nonsense suppression was not above 0.026.
As to U55A A60C G61U C79G, the nonsense suppression is not above 0.026.
With C3A U57G, the nonsense suppression is not above 0.026.
With G10U A60C, the nonsense suppression was not above 0.026.
In the case of G7A G61A A87G, the nonsense suppression is not above 0.026.
With A13G U17G U76C, the nonsense suppression was not above 0.026.
As to C1A A14U, the nonsense suppression is not above 0.026.
With C3A G18A G73A C81G, the nonsense suppression is not above 0.026.
With G26C G61U U63A, the nonsense suppression was not above 0.026.
Next, A9G C11G U57C: not above 0.026; G15A G78A: 0.0278.
As to A30U A62G C81G, the nonsense suppression is not above 0.026.
As to U17A G25C, the nonsense suppression came out at 0.068.
Regarding G73A C80A, the nonsense suppression is not above 0.026.
On to U17G G28A, for which the nonsense suppression was found to be 1.12.
In the case of G25U G26C C64G C79U, the nonsense suppression is not above 0.026.
As for A23U G65A G88C, the nonsense suppression is not above 0.026.
As for G69A A74C, the nonsense suppression is not above 0.026.
For the variant A33C U71G C80G G88C, the nonsense suppression is not above 0.026.
Regarding C5G C80A, the nonsense suppression is not above 0.026.
Regarding C12G U20G, the nonsense suppression was not above 0.026.
As for G7U U57G U71C, the nonsense suppression is not above 0.026.
G18U U20C U35G C83A G85C: the nonsense suppression is not above 0.026.
For A31C A33U, the nonsense suppression is not above 0.026.
On to G25A G28A A87C, for which the nonsense suppression was not above 0.026.
With C5G G61C U70C, the nonsense suppression was not above 0.026.
Next, G26A C34U U55C C56G U63A: not above 0.026; G19U: not above 0.026; U17C G25C G65C: not above 0.026.
Consider U4A C11A G61C, for which the nonsense suppression was not above 0.026.
C3U C83G: the nonsense suppression was not above 0.026.
For C27G C80U, the nonsense suppression was not above 0.026.
With A14U G61A, the nonsense suppression was 0.0341.
Next, G6C A33U C75A C82U: not above 0.026; A30U G65U: not above 0.026; G7C G26A A89G: not above 0.026.
C5G U55C G86U: the nonsense suppression is not above 0.026.
Turning to U8A A24U, the nonsense suppression is not above 0.026.
Next, G67A G88U: not above 0.026.
In the case of C34U C75G, the nonsense suppression was not above 0.026.
As for U57C G73C, the nonsense suppression is not above 0.026.
For G7A A9U G15A C34A, the nonsense suppression is not above 0.026.
Regarding G67U U70G C82A, the nonsense suppression is not above 0.026.
For C1G G6U A31C G73C C79U, the nonsense suppression was not above 0.026.
Take U58G G66A G86C: the nonsense suppression is not above 0.026.
As to C5G U17G C34G G69A, the nonsense suppression is not above 0.026.
Consider U17G C27G U71G, for which the nonsense suppression is not above 0.026.
With G15C A31G U55A the figure was not above 0.026.
For the variant A9C A62U, the nonsense suppression is not above 0.026.
Consider C29G U35C, for which the nonsense suppression was not above 0.026.
As for C1G A74G, the nonsense suppression is not above 0.026.
With G61C A74U C81U G86U, the nonsense suppression was not above 0.026.
In the case of U16G G61C G69A, the nonsense suppression is not above 0.026.
Turning to C3U G32A C82U G88U, the nonsense suppression is not above 0.026.
In the case of A30U U57G U71G, the nonsense suppression was not above 0.026.
Next, C1U U4A U21A A60G G69C: not above 0.026; C3U C81A: not above 0.026.
As to G6C U58A, the nonsense suppression is not above 0.026.
As for G19A G65C G66U C80A, the nonsense suppression was not above 0.026.
Turning to C12G C72G, the nonsense suppression was not above 0.026.
Consider G18U A30G G69A, for which the nonsense suppression is not above 0.026.
Consider A74U C81G, for which the nonsense suppression was not above 0.026.
Next, A14U U55G G73A C77G: not above 0.026.
As for C29U A31C, the nonsense suppression was not above 0.026.
Turning to A54U G61A C64G, the nonsense suppression is not above 0.026.
For the variant U22C G26A, the nonsense suppression was not above 0.026.
As for G6C A14G C34A C79U, the nonsense suppression was not above 0.026.
Turning to C27U G32C, the nonsense suppression is not above 0.026.
For the variant U4C A24G, the nonsense suppression is 0.31.
Regarding U4A U55C A74G A89C, the nonsense suppression was not above 0.026.
Regarding C3U G65A C72G G73U, the nonsense suppression was not above 0.026.
For U20A A54U U57C, the nonsense suppression was not above 0.026.
On to U63C U70A, for which the nonsense suppression is not above 0.026.
On to G6C C34U A62G, for which the nonsense suppression was not above 0.026.
Consider C1A U2G G19A G32C A89G, for which the nonsense suppression was not above 0.026.
In the case of A9C C56A G65A G78C, the nonsense suppression is not above 0.026.
U21C C29A U57G: the nonsense suppression was not above 0.026.
Regarding A13G C29U A31U C56A U70G, the nonsense suppression was not above 0.026.
As to A31G U58C G59A, the nonsense suppression was not above 0.026.
As for G26C G78U C79A G88U, the nonsense suppression is not above 0.026.
Turning to A74C C79A A89C, the nonsense suppression is not above 0.026.
With C5U U16C C29A U55G the figure was not above 0.026; with U4A G67C C68U, not above 0.026; with C5U A60C A87U, not above 0.026.
Consider G19A C64G, for which the nonsense suppression is not above 0.026.
On to U21G U63G, for which the nonsense suppression amounted to 0.0367.
On to G26C U57A G73A, for which the nonsense suppression is not above 0.026.
With U2C A30U A31G A62G G67A G86C the figure was not above 0.026.
As for G69C C80A, the nonsense suppression is not above 0.026.
In the case of U57C C83U A87C, the nonsense suppression was not above 0.026.
For the variant U70G C77U, the nonsense suppression is not above 0.026.
For C11G C79A, the nonsense suppression is not above 0.026.
U76G G84C: the nonsense suppression was not above 0.026.
Regarding G7U C12U G28C C75U G86U, the nonsense suppression is not above 0.026.
As to A23C G32A U55A G59A G66C C80U, the nonsense suppression is not above 0.026.
G6U G26C U70C A74U G88C: the nonsense suppression is not above 0.026.
With C5U C34U U58G G61U, the nonsense suppression is not above 0.026.
On to G6C G25U U63G, for which the nonsense suppression is not above 0.026.
Consider G18U C34A C80A G84C, for which the nonsense suppression was not above 0.026.
With A24G G69U C79G, the nonsense suppression is not above 0.026.
As to U20G C79G A87U, the nonsense suppression is not above 0.026.
Regarding G15C C81G, the nonsense suppression is not above 0.026.
Consider U17A A24C C29U A30G U63C U70C G73A A74C C80U, for which the nonsense suppression was not above 0.026.
As to U2C C5A, the nonsense suppression was not above 0.026.
Regarding C1U A33U, the nonsense suppression was not above 0.026.
In the case of U16A G25U A33C, the nonsense suppression was not above 0.026.
As to G10C G61U G69C, the nonsense suppression was not above 0.026.
Turning to C11U G26C G67U, the nonsense suppression is not above 0.026.
On to U2A A13U C75U G85C, for which the nonsense suppression was not above 0.026.
On to A24C C27G C29U, for which the nonsense suppression is not above 0.026.
For the variant G25U G86A, the nonsense suppression is not above 0.026.
